# From publication PMC6919601, “Identification of Plasmodium dipeptidyl aminopeptidase allosteric inhibitors by high throughput screening” (PLoS ONE, 2019)
# The campaign covered roughly 110,000 compounds. About 230 (0.21%) showed an effect of 50% or more. Some of the results follow.
# Molecular target: DPAP1 (Plasmodium falciparum, UniProt Q8IIJ9)
# Assay: primary screen, percent inhibition; read by cleavage of a fluorogenic dipeptide substrate; higher = more effect of the substance
# Set-up: species or system P. falciparum D10 trophozoite lysates; single well
# 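Also: 30 min substrate incubation versus DMSO and 10 µM JCP410 controls.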
# DPAP1, sequence (Q8IIJ9 whole entry, looked up): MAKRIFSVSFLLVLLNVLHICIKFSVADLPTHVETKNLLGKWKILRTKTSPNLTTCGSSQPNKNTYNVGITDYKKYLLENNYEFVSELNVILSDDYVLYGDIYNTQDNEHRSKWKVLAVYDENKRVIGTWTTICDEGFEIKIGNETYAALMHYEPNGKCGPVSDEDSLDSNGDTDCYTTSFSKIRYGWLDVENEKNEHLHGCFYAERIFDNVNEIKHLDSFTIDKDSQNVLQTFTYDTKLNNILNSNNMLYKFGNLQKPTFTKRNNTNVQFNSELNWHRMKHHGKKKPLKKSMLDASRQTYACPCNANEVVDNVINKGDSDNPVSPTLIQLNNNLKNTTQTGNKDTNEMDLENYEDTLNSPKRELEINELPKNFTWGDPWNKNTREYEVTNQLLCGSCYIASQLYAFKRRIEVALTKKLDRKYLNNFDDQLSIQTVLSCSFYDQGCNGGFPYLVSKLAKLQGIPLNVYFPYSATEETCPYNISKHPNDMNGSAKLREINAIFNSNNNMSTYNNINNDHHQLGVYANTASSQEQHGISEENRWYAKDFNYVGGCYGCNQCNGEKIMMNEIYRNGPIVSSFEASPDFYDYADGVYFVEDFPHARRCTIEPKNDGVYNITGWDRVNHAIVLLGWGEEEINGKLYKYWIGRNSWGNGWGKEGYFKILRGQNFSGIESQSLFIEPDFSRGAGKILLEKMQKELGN
row,SMILES,% Inhibition @ 10 uM
1,COc1ccc(C)cc1N(CC(=O)NC(C)(C)C)S(=O)(=O)c1ccc(C)cc1,-3.78%
2,COc1cc(OC)c(NC(C)=O)cc1Cl,-0.268%
3,O=C(NC1CCN(Cc2ccccc2)CC1)c1ccc(F)cc1,-1.96%
4,OC(COc1ccc(OCC(O)CN2CCCCC2)cc1)CN1CCCCC1 (stereo not drawn),3.53%
5,CC(C)c1ccc(OCC(=O)NCCN2CCOCC2)c(Br)c1,3.04%
6,CCOc1cc(/C=N/n2cnnc2)c(Br)cc1O,0.611%
7,CC1(C[C@H](NC(=O)OC(C)(C)C)C(=O)NC2(C#N)CCS(=O)(=O)CC2)CCCC1,3.1%
8,CCCCCCSc1nc(N)c2c(C)c(C)sc2n1,-1.26%
9,COCCCNC(=O)c1csc2c1CCCC2,-1.44%
10,CC1(C)CC(O)=C/C(=N/Cc2ccc(C(=O)O)cc2)C1,0.317%
11,CC(C)CN1C(=O)c2ccccc2C(C(=O)N(CCN(C)C)Cc2ccccc2)C1c1cccs1 (stereo not drawn),-4.37%
12,N#CC1=C(N)Oc2[nH]nc(-c3cccs3)c2C1c1c(F)cccc1Cl (stereo not drawn),-4.43%
13,COc1cc(/C=C2\SC(=O)N(CC(=O)Nc3ccc(C)cc3)C2=O)cc(Br)c1O,-2.11%
14,Cc1ccc(Cl)cc1NC(=O)C1CC(=O)N(c2ccc(Cl)cc2)C1 (stereo not drawn),-6.67%
15,CNC(=O)c1ccc2c(c1SC)C(=O)c1ccccc1C2=O,2.18%
16,Cn1c(-c2cccs2)c(C=O)c2ccccc21,-5.37%
17,CC1(C)CC(NC(=O)C(F)(F)F)CC(C)(CNC(=O)C(F)(F)F)C1 (stereo not drawn),-12.3%
18,CC1CC(C)CN(C(=O)Cc2cccc3ccccc23)C1 (stereo not drawn),-1.46%
19,Cc1c2cnn(CC(=O)N(C)Cc3ccccc3)c(=O)c2c(C)n1Cc1ccccc1F,-3.96%
20,NC(=O)c1c(-c2ccccc2)csc1NC(=O)C1CC1c1ccccc1 (stereo not drawn),7.62%
21,O=C(NCCc1ccccc1)c1nnc(CS(=O)(=O)c2ccccc2)o1,0.91%
22,CCc1nnc(NC(=O)c2cc(=O)c3ccc(C)c(C)c3o2)s1,-1.47%
23,C=CCN1C(=O)NC(=O)/C(=C/c2ccc(-c3ccc(Cl)c(C(=O)O)c3)o2)C1=O,6.42%
24,CCS(=O)(=O)C1=NSC2=NC(=O)/C(=C\c3cc(C)n(-c4ccccc4F)c3C)C(=N)N21,5.06%
25,CN(Cc1ccccc1)C(=O)c1cccnc1,1.38%

row,SMILES,% Inhibition @ 10 uM
1,CC/N=c1\c(NS(=O)(=O)CC)c(O)oc2ccccc12,1.49%
2,CCOc1ccc(CCNCc2c(C(=O)O)n(Cc3ccc(OC)cc3)c3cc(OC)ccc23)cc1,3.64%
3,O=C(c1ccc(Cl)cc1)N1CCCN(C(=O)c2ccc(Cl)cc2)CC1,3.79%
4,CCO/C(O)=C1\C(C)=NC2=C(C(=O)CC(C)(C)C2)C1c1ccc(Cl)cc1Cl (stereo not drawn),-1.03%
5,O=C(Cc1ccccc1)NCCCc1nc2ccccc2n1Cc1ccccc1,4.11%
6,Cc1ccc(-c2csc(C3C(N)=NC(S)=C(C#N)C34CCCCC4)n2)cc1 (stereo not drawn),89.8%
7,CCc1ccc(NC(=O)C2CC(C)=C(C)CC2C(=O)O)cc1 (stereo not drawn),-6.02%
8,O=C(CN1C(=O)c2cccc3cccc1c23)NCCSCc1ccco1,2.65%
9,Cc1nc(CC(=O)Nc2nnc(C3CCCO3)s2)cs1 (stereo not drawn),-2.71%
10,CCOc1ccccc1C(=O)Nc1ccc(CC)cc1,-5.82%
11,COc1ccc(Cn2c(=O)c3cccnc3n(Cc3ccc(C#N)cc3)c2=O)cc1,0.0579%
12,COc1ccc(CC(=O)Nc2ncc(Cc3cccc4ccccc34)s2)cc1,0.484%
13,CCSc1nnc(NC(=O)CSc2nnc(Cc3cccn3C)n2C)s1,1.94%
14,CCOC(=O)N1CCN(C(=O)CCc2c(C)nc3c(c2C)c(=O)n(C)c(=O)n3C)CC1,2.12%
15,O=C(COc1ccccc1)n1nc(-c2ccccc2)nc1NCc1ccc(F)cc1,-6.71%
16,Cc1cc(C)c(C(=O)c2ccc(C(=O)N3CCOCC3)cc2)c(C)c1,1.41%
17,CC1(C)CC2=Nc3ccc4ccccc4c3C(c3cccnc3)C2=C(O)C1 (stereo not drawn),-4.03%
18,COCCNC(=O)c1ccc2c(c1)ncn2-c1cc(C)cc(C)c1,3.04%
19,CNC(=O)Cn1ncc2c(C)n(Cc3ccccc3F)c(C)c2c1=O,2.84%
20,Oc1ccc(/C=C/c2nc3ccccc3s2)cc1,-1.22%
21,O=C(CN1C(=O)S/C(=C/c2ccc(O)cc2)C1=O)Nc1cccc2ccccc12,-1.91%
22,CC(=O)NCCNc1nc2c(-c3cccc(Br)c3)nnn2c2ccccc12,-1.21%
23,COc1ccc(CNCc2ccccc2C(F)(F)F)cc1OC,-2.22%
24,CCOc1ccc(NC(=O)c2cccc(C)c2)cc1,4.6%
25,O=C(O)c1ccccc1C(=O)N1CCC(O)(c2ccc(Cl)cc2)CC1,-0.318%

row,SMILES,% Inhibition @ 10 uM
1,COc1cc(OC)cc(-c2cc3nc(C4CCN(C(=O)OC(C)(C)C)CC4)cc(O)n3n2)c1,0.708%
2,CCN1C2=C(C(=O)CCC2)C(c2cccc(O)c2)C2=C1CCCC2=O,3.47%
3,CCCOc1ccc(C2C(C#N)=C(N)Oc3[nH]nc(C)c32)cc1OCC (stereo not drawn),-0.941%
4,N#CC1(NC(=O)[C@H](Cc2c(F)cccc2F)NC(=O)c2ccc(-c3ccccc3Cl)cc2)CCOCC1,-0.207%
5,COc1cc(C=C2C(=O)OC(C)(C(C)(C)C)OC2=O)ccc1O (stereo not drawn),0.275%
6,O=C(O)c1ccccc1/C(=N/O)c1ccc2c(c1)Cc1ccccc1-2,12.6%
7,Cn1nc(C(=O)N2CCc3ccccc3C2)c2c1-c1ccccc1SC2,26.4%
8,O=c1/c(=C/C=C/c2ccccc2)sc2nc(-c3cccs3)nn12,-9.16%
9,COc1ccc(C2C3=C(O)CCCC3=Nc3ncnn32)cc1Br (stereo not drawn),1.73%
10,O=C(NC1CCCCC1)c1ccccc1NC(=O)C1CCCCC1C(=O)O (stereo not drawn),0.795%
11,CC(C)CCn1c(CCCNC(=O)C(C)C)nc2ccccc21,-0.551%
12,CN1CC=C2C(C#N)=C(N)C(C#N)(C#N)C(c3ccccc3C(F)(F)F)C2C1 (stereo not drawn),4.86%
13,COc1ccc2nc(N3CC(C)OC(C)C3)cc(C)c2c1 (stereo not drawn),-5.39%
14,Cc1cc(/C=C2\NC(=O)N(Cc3ccc(Cl)cc3)C2=O)c(C)n1C,0.487%
15,c1ccc(Cn2ncc3nc4ccccc4nc32)cc1,-0.403%
16,Clc1nccc2c(Br)cccc12,-2.83%
17,CC(C)CC(NC(=O)Nc1cccnc1)C(=O)NCC#N (stereo not drawn),-9.15%
18,O=C(c1cccnc1)N1CCN(c2cccc(Cl)c2)CC1,-1.5%
19,COc1ccccc1C1NC(=O)NC2=C1CCc1ccccc12 (stereo not drawn),2.22%
20,COc1ccc(-c2cc(=O)c3cc(Br)ccc3o2)cc1OC,3.17%
21,CCCn1cc(NC(=O)C2=CC(c3ccc(OC)cc3)=NS(=O)(=O)N2C)cn1,2.32%
22,Cc1ccc(N(CC(=O)Nc2ccccc2F)S(=O)(=O)c2ccccc2)c(C)c1,-8.28%
23,O=C(Nc1ccccc1C(=O)O)c1cc([N+](=O)[O-])ccc1Cl,4.54%
24,N#C/C(=C(/O)c1ccc(Cl)cc1Cl)c1nc(O)c2ccccc2n1,17%
25,Cc1ccc(S(=O)(=O)Nc2ccc(-c3cn4cccc(C)c4n3)cc2)cc1,0.755%

row,SMILES,% Inhibition @ 10 uM
1,Cc1n[nH]c(C)c1N1C(=O)c2cccc3cccc(c23)C1=O,-12.5%
2,COc1cccc(CCNC2CC(=O)N(c3ccc(C)cc3)C2=O)c1 (stereo not drawn),-5.1%
3,CC(=O)N1CCN(CC(C)(C)NS(=O)(=O)c2ccccc2)CC1,-5.16%
4,CC(=O)c1cccc(Nc2cc(C)nc3ncnn23)c1,-7.08%
5,O=C(Nc1ccc(Cl)cn1)C1c2ccccc2C(=O)N(C2CCCC2)C1c1cccs1 (stereo not drawn),-5.3%
6,N#Cc1c2ccccc2c2nc(-c3ccccc3)c3cc(Cl)ccc3n12,-1.07%
7,COc1cccc(Nc2ccc3noc4c3c2C(=O)c2ccccc2-4)c1,-1.15%
8,Cc1ccc(C(=O)O)cc1NC(=O)C1C2CCC(C2)C1C(=O)O (stereo not drawn),5.44%
9,Cc1ccccc1OC(C)C(=O)Nc1cccnc1 (stereo not drawn),-5.92%
10,CCC(C)Oc1ccccc1/C=C1/SC(=O)N(CC(=O)N2CCCCC2)C1=O (stereo not drawn),-3.1%
11,CC1CCCCN1CCCNC(=O)C1CCCN(c2nnc(-n3cccc3)s2)C1 (stereo not drawn),2.76%
12,CCc1c(C)c(C#N)c2nc3ccccc3n2c1N1CCN(C)CC1,5.8%
13,Nc1c(-c2nc(-c3ccccc3)no2)nnn1-c1ccccc1C(F)(F)F,-1.87%
14,CCc1ccc(N2CC(C(=O)Nc3cccc(C(F)(F)F)c3)CC2=O)cc1 (stereo not drawn),5.24%
15,COc1ccc(NC(=O)c2cc(Cl)ccc2N)cc1,3.8%
16,Cc1ccc(-c2nc3n(n2)C(=O)CC(c2ccc4c(c2)OCO4)S3)cc1 (stereo not drawn),-7.02%
17,O=C1c2ccccc2C(=O)N1CCCCON1C(=O)c2ccccc2C1=O,-5.34%
18,CC(C)C[C@@H](C(=O)NCC#N)c1cccc(-c2cccc(OCCN(C)C)c2)c1,-3.04%
19,CCN(CC)S(=O)(=O)c1nnc(NC(=O)Cc2ccccc2)s1,1.68%
20,COC(=O)C1C(=O)NCC1c1ccc(C)cc1 (stereo not drawn),-0.546%
21,Cc1nn(C)c(C)c1C1C(C#N)=C(N)OC2=C1C(=O)CC(C)(C)C2 (stereo not drawn),1.03%
22,CS(=O)(=O)N(Cc1ccccc1Cl)c1ccc(C(=O)N2CCc3ccccc3C2)cc1,-6.62%
23,O=C1c2ccccc2C(=O)N1CC1c2ccccc2CCN1S(=O)(=O)c1cccc2nsnc12 (stereo not drawn),-4.96%
24,Nc1ncc(Br)cc1S(=O)(=O)N1CCC(Cc2ccccc2)CC1,2.32%
